Test results reported in the RNAGym collection of RNA variant scans (doi:10.1073/pnas.2313332121).
This sample is rich in variants without activity.

B1: TPR 5TU (parent)
chain: GGAUCUUCUCGAUCUAACAAAAAAGACAAAUCUGCCACAAAGCUUGAGAGCAUCUUCGGAUGCAGAGGCGGCAGCCUUCGGUGGCGCGAUAGCGCCAACGUUCUCAACUAUGACACGCAAAACGCGUGCUCCGUUGAAUGGAGUUUAUCAUG

Variants of: B1
Assay: polymerase ribozyme fitness, log enrichment relative to wild type (log ratio); higher = more active; in vitro selection for triplet polymerase activity
Method in brief: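 After PCR construction and transcription, each subunit's mutant library from a heterodimeric triplet polymerase ribozyme was annealed with a biotinylated primer, the partner subunit and triplets. Incubation was frozen, at −7 °C, and extended constructs were gel-excised, bound to streptavidin beads and amplified by RT-PCR, in one selection round done in triplicate. Fitness is the logarithm of a genotype's enrichment divided by that of the wild type, from inverse-variance-weighted replicate averages of Illumina-sequenced inputs and outputs. The base of the logarithm is 2, and genotypes needed ≥10 input reads and ≥1 read per output.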

Variant | polymerase ribozyme fitness (log ratio)
U109G A115U C125A | -4.05
C131A A150G | ≤ -4.2
A142U C149A | ≤ -4.2
A137U G141U A147U | ≤ -4.2
A107G G140U U151A | ≤ -4.2
U109A A137C A150G | ≤ -4.2
A106G A113U U135G | ≤ -4.2
A115G U146A | -1.38
C105A G140U | -4.11
A122G G143A | -1.03
A119G C125A | 0.204
C103A G140U G143U | ≤ -4.2
G126A G133C U146C | -2.5
A107C U146G U151G | ≤ -4.2
U135C G136A U151G | ≤ -4.2
C118A A138C | ≤ -4.2
C129A U148A | ≤ -4.2
A107G G141C | -3.86
U109G C125U C129U | -4.06
C108U U135C U145G | ≤ -4.2
U134A A138C | ≤ -4.2
C116G C125G | ≤ -4.2
C108A C116G G128A U130G | ≤ -4.2

Variant | polymerase ribozyme fitness (log ratio)
C108A G126U | ≤ -4.2
U109A G124A G140C | ≤ -4.2
C105U A120G A122C | 0.479
G141A G143U | ≤ -4.2
A107G C116A A120G | ≤ -4.2
U102C | -0.787
U102A | -0.854
U102G | -2.51
A121C | 0.117
A121G | -0.0563
A121U | -0.0614
C131G U146G | ≤ -4.2
C103A U146C | -1.49
C116U U151C | -4.04
C116U U151G | ≤ -4.2
C105G G141C | -2.56
U101G A138U | -3.25
C114U A122G | -1.87
U144C | 0.0778
U144A | -0.043
C108U C116U A142U U151A | ≤ -4.2
C125U U134A | -1.89
G133U A138U U144G | ≤ -4.2

Variant | polymerase ribozyme fitness (log ratio)
A119U G140U | -3.25
U109G G124C C131G | ≤ -4.2
C116U U139C | ≤ -4.2
C125A | -0.171
C125G | -0.473
C125U | -0.476
U104A C114U A138C | ≤ -4.2
G143A | -0.315
G143C | -1.78
G143U | -1.84
U101G C105A | ≤ -4.2
C125U U146G | -1.15
U134G U151G | ≤ -4.2
C103A A107C A142C | ≤ -4.2
C116A C118G A137U | ≤ -4.2
U102A A113C | -3.86
C108G G143C A147C | ≤ -4.2
U104G A113U U127A G141A | ≤ -4.2
A113U G117U | -2.07
G126U U135C | -1.61
C116U U145C U148C | -2.77
C114G A142C | ≤ -4.2
A138G U146G | ≤ -4.2

Variant | polymerase ribozyme fitness (log ratio)
U135C U145C | -2.51
A122C G141C A147C | ≤ -4.2
C149U A150G | -2.95
C129U U148G | ≤ -4.2
U101G C105A C116U U134C | ≤ -4.2
U102A C114G U145G | ≤ -4.2
A107C C129A U145C | ≤ -4.2
A122G A138C | ≤ -4.2
A107G C108G G143U | ≤ -4.2
G140U U144C | -3.28
C132U U145G | -0.815
C103G G143U | ≤ -4.2
C105U A138U | -2.82
C123A G128A A150G | ≤ -4.2
C108U G136U | -3.41
C103G U130A | -4.04
G126U G133U G143A U145G | ≤ -4.2
C125U U145C | -0.634
C108U G133U | -3.96
C123A C132G | -3.17
